Reference: the RNAGym collection of RNA variant scans (doi:10.7554/elife.90254)
The source gives no read counts; variants with many changes may rest on few reads.

B1: LINE1-mini (parent)
chain: GGCAGAGCUCAACACAGCGUGGCAAAGUGGCUGUGGCUAGACUGCC

Variants of: B1
Assay: self-cleavage, relative activity (ratio to wild type); higher = more cleavage; in vitro, sequencing; the parent is a self-cleaving ribozyme
Variant G2C C13A A25G has a self-cleavage of 0.02.
Variant G2C A4C C13A A26U G44C C46G has a self-cleavage of 0.03.
For G2C A4C C37A U43C, the self-cleavage was 0.05.
G2C G17U C42A C46G showed a self-cleavage of 0.02.
In the case of G2C A12U G30A C45G C46G, the self-cleavage is reported as 0.12.
G2C A12G G21U showed a self-cleavage of 0.04.
In the case of G2A U9G A16G C23U, the self-cleavage is reported as 0.01.
With G2C G5A C10U C18U the self-cleavage was 0.07.
G2A G5C G44U showed a self-cleavage of 0.25.
Variant G2A U34C C45G has a self-cleavage of 0.09.
Work on G2C C8A G36C C37A A39U G40C yielded a self-cleavage of 0.17.
For G2C C15A G22C A25U G27U C45G, the self-cleavage was 0.09.
Work on G2A G17U G36A G44U yielded a self-cleavage of 0.07.
For G2C A6U C10A A16G G40A G44U, the self-cleavage was 0.02.
In the case of G2C C3U C37A, the self-cleavage is reported as 0.03.
Work on G2C G5U A12U C13A C18A G33U C37U G40U C45G yielded a self-cleavage of 0.01.
Variant G2C C31U U32C has a self-cleavage of 0.23.
G2A C37U A39G C46A gave a self-cleavage of 0.12.
G2A U9A A14G G17C U28G gave a self-cleavage of 0.12.
For G2A G17C C23A, the self-cleavage was 0.82.
G2C A16C U32A C46A gave a self-cleavage of 0.06.
Work on G2A G7U U20C A39U yielded a self-cleavage of 0.18.
Variant G2A C18A U34G A41C has a self-cleavage of 0.05.
G2A U9G C18U C46A showed a self-cleavage of 0.06.
In the case of G2C A4C U43A, the self-cleavage is reported as 0.06.
With G2A C31A G35U the self-cleavage was 0.11.
G2A G17U A41U gave a self-cleavage of 0.09.
G2C C10G A14U A25U gave a self-cleavage of 0.01.
For G2A G21U A24U U38C G40U, the self-cleavage was 0.23.
G2A G21U G40C showed a self-cleavage of 0.51.
G2A G27U U28C U43A showed a self-cleavage of 0.22.
In the case of G2C A6C C15U C23U, the self-cleavage is reported as 0.2.
In the case of G2A U9C C10G A11G, the self-cleavage is reported as 0.04.
Work on G2C C31G C37U yielded a self-cleavage of 0.07.
G2A C15U C37G G40A showed a self-cleavage of 0.06.
Work on G2A G19C A26C G36U yielded a self-cleavage of 0.12.
Work on G2C C13G C15U A16G yielded a self-cleavage of 0.01.
With G2C G7A C10U G27U U38C C45A the self-cleavage was 0.18.
Work on G2C C18A G19C yielded a self-cleavage of 0.06.
G2C G17U G19A U32G showed a self-cleavage of 0.09.
Variant G2C G5A A14U A25G U38G has a self-cleavage of 0.09.
With G2A G7A C31A U43A the self-cleavage was 0.3.
In the case of G2C C10U A11G, the self-cleavage is reported as 0.02.
G2C A26C C46G showed a self-cleavage of 0.04.
G2C A6G C8A A41C showed a self-cleavage of 1.88.
G2C A12C G17A A41G showed a self-cleavage of 0.03.
In the case of G2A U9G G17C, the self-cleavage is reported as 0.36.
G2C A4C G19U gave a self-cleavage of 0.02.
With G2A U20G G27C the self-cleavage was 0.07.
Work on G2A G36C C45A yielded a self-cleavage of 0.07.
G2C A14U U34C showed a self-cleavage of 0.07.
For G2C A6U G21A U28C G29A G35A C46A, the self-cleavage was 0.52.
G2C A26C G33A U38C gave a self-cleavage of 0.22.
For G2A U38C C45G, the self-cleavage was 0.45.
In the case of G2A C15G G22C, the self-cleavage is reported as 0.02.
With G2A G36U A41G the self-cleavage was 0.08.
With G2A G7A C42U U43G the self-cleavage was 0.56.
Work on G2A U20G G22U G29U C31U yielded a self-cleavage of 0.15.
G2C G7A C8U U32A gave a self-cleavage of 0.09.
Variant G2C C10U G29C has a self-cleavage of 0.03.
G2A C31U A41C showed a self-cleavage of 0.05.
Variant G2A G7C A14G A39U has a self-cleavage of 0.01.
With G2A C31G C37U the self-cleavage was 0.13.
For G2C A4U C10A C18U, the self-cleavage was 0.04.
In the case of G2A G7A G36C, the self-cleavage is reported as 0.44.
G2C A12C A26C G29U G36U gave a self-cleavage of 0.05.
With G2C A4C G27U U38C the self-cleavage was 0.12.
In the case of G2C C13U A14U G27C U38G G44A C45G, the self-cleavage is reported as 0.01.
Variant G2A U28C G35C A39U has a self-cleavage of 0.11.
G2A U9C A24U U32A G36U gave a self-cleavage of 0.01.
For G2C G7U C37U, the self-cleavage was 0.09.
With G2A G19A G21A G35U the self-cleavage was 0.61.
For G2A G27C U38A U43A, the self-cleavage was 0.13.
G2C A24G C31A C37A gave a self-cleavage of 0.05.
Variant G2C C13A U38A has a self-cleavage of 0.05.
Work on G2A C23G A25U G29A G33A yielded a self-cleavage of 0.22.
Variant G2A C15U A25G A26U U32G has a self-cleavage of 0.07.
In the case of G2C A26C G30A, the self-cleavage is reported as 0.28.
Variant G2C A14C G36A has a self-cleavage of 0.06.
For G2A U38G C42U, the self-cleavage was 0.11.
G2C C10G A12U C45U showed a self-cleavage of 0.01.
Variant G2C A4G C37A G40A has a self-cleavage of 0.06.
In the case of G2C C3U G5U C13G A25U C37U, the self-cleavage is reported as 0.06.
